The other results are listed elsewhere or left out.

The test has as its system PF3D7_0420300 AP2 domain 1 (GST-tagged). Kind of test: gcPBM binding intensity (ln(normalized median fluorescence intensity)); higher = stronger DNA binding. The method, boiled down: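 GST-tagged P. falciparum DNA-binding domains, expressed in E. coli (about 25 μg on average), were applied for 1 h to an Agilent 4 × 180k array of primer-extended double-stranded 36-bp intergenic genomic probes plus negative controls. The binding buffer was 1× PBS with 1% milk, 0.2 mg/ml BSA, 0.5% salmon testes DNA and 0.03% Triton X-100. Bound protein was detected with Alexa488 anti-GST antibody and scanned at 488 nm. Binding intensity is the highest Masliner-normalised natural-log median intensity across replicate spots of either probe orientation.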
As for “TACTTAAAATATTTAACAAATAAATAAATAAATAAA [XGTACX_negctrl_site523]”, the “gcPBM binding intensity (ln)” value came to 8.97. Turning to “TGAAACCGTTACATGTGTACATATGTTACACATAAT [XGTACX_site7250]”, the “gcPBM binding intensity (ln)” value was 9.23. As for “TATAATATATTATATACACACATTATGAAATCCACA [CACACA_site1330]”, the figure is 9.6; as for “AACACGCGCAGACACACACACACACCCACATATATA [CACACA_site2205]”, 10.2; as for “TATATGAACTTATATACACACCATTTTTGTAAATCT [CACACA_site4547]”, 9.39. “ATAAATATATTTTATAGTACATAAATATCAAAAAAA [XGTACX_site2334]”: the “gcPBM binding intensity (ln)” value was determined as 9.2.

ATTTTGATGCATGGGTTGCACTAACTTTTGCCCAGA: the “gcPBM binding intensity (ln)” value came out at 9.13. In the case of “AAACAATACTGATATTGTACATAATAAAAAAAAATA [XGTACX_site3330]”, the “gcPBM binding intensity (ln)” value is 9.21. Then “CATACATACCTATATACACACATATAAAATAATATA [CACACA_site7290]”, with 9.75; and “AGTATACAGATATATACACACATATTTATATTTATA [CACACA_site6394]”, with 9.54.

Regarding “TCTATATGTTGATTCACACATAAAGAATAAATAAAA [CACACA_site6017]”, the “gcPBM binding intensity (ln)” value turned out to be 9.02.

Consider “TGTTATTATTTGTACACACACATATATATCCTTGTT [CACACA_site3616]”, for which the “gcPBM binding intensity (ln)” value worked out at 10.1. As for “GGCAACATTTGAAACACACACACATACAAACAAACA [CACACA_site3307]”, the figure is 9.97; as for “TAGTCGTTTTTTTAATGTACTCACGCATAATATAAT [XGTACX_site6499]”, 9.19.

In the case of “TTAATTATAAGAAAAAGTACTCATTACATTATAGAA [XGTACX_site678]”, the “gcPBM binding intensity (ln)” value is 8.81. As for “ATATAAATATTCCACACACACACAAAAAAAAAAAAA [CACACA_site7678]”, the figure is 10. Consider “CATATACATCCACATACACACATACACCCATACACA [CACACA_site5038]”, for which the “gcPBM binding intensity (ln)” value amounted to 9.74. With “TGAAAAGTAAAATACACACACATAATATAATTTATA [CACACA_site1989]”, the “gcPBM binding intensity (ln)” value was 9.99. As for “AAAGGATATAGACACACACACACATATATATATATA [CACACA_site2200]”, the figure is 10; as for “ATCATTTTTAAAGGAACACACAAAAAAAATTAGAAT [CACACA_site1370]”, 9.58. As to “GTTCAAAATATGAACACACACATATAGATTTATATA [CACACA_site7054]”, the “gcPBM binding intensity (ln)” value worked out at 9.5. As for “ATTATTTTTTTTGTTACACACATGACTTATTTTTAT [CACACA_site3228]”, the figure is 9.82; as for “TATTTTTATATATGACGTACTCTACAATTATTAATG [XGTACX_site5818]”, 9.2. Turning to “TTTTTTTTTTTTGATGCACACACCTGAACGAGTTAA [CACACA_site317]”, the “gcPBM binding intensity (ln)” value stood at 9.42. As to “AAAATATGTATGTAAAGTACTAATATACAAATTTTT [XGTACX_site5186]”, the “gcPBM binding intensity (ln)” value was found to be 9.26.

As to “ATATATATATATATATGTACATATGTCAACTGTCTA [XGTACX_site8636]”, the “gcPBM binding intensity (ln)” value came to 9.61.

With “CATACATACAAACACACACACATATATATACATACA [CACACA_site852]”, the “gcPBM binding intensity (ln)” value turned out to be 10.2. Consider “TATGTATTAATGAGAACATGCAAAATAATAAACAAT [TGCATGCA_site362]”, for which the “gcPBM binding intensity (ln)” value stood at 9.72. As for “ATATATCAAATAGACAAACACACAAAGGAAGAGTGA [CACACA_site3922]”, the “gcPBM binding intensity (ln)” value is 9.89.

In the case of “CATATACACGAACACACACACACACGCACAAAAAAA [CACACA_site6376]”, the “gcPBM binding intensity (ln)” value came to 10.2. As for “CACAGACACGGACACACACACACACCCAGACACATA [CACACA_site4357]”, the figure is 10.2.

Take “ATAATTAATGATGTATGTACGGAATTTATATATTTG [XGTACX_site5685]”: the “gcPBM binding intensity (ln)” value is 9.19. As for ATAGTAATAGAATGATTGCACTTAAATTTTCCCTCT, the figure is 9.19.

Regarding “GTATACATATTTATAATAATAAATGTCTTATATTTT [CACACA_negctrl_site688]”, the “gcPBM binding intensity (ln)” value was determined as 9.17. As for “TAATATATTAATATATGTACGTATTTTTATTAATAT [XGTACX_site5346]”, the figure is 9.14; as for “TTAAATAATTCTTTTAGTACACACGAATAAGCAGAT [XGTACX_site623]”, 9.49; as for “TATCTTATATATAAGTGTACGCAGATTCTTACGATA [XGTACX_site6058]”, 8.98.

TTTGTTCTTTTTGAAGTGCACTGAAATATAACAAAA: the “gcPBM binding intensity (ln)” value worked out at 8.82. For “AAAAAAACACACACATATATATATATATATATATAT [GTGCAC_negctrl_site498]”, the “gcPBM binding intensity (ln)” value stood at 9.62.

“AAGAAAAAGAATAACCTTATTTCTATATACTAATTT [TGCATGCA_negctrl_site477]”: the “gcPBM binding intensity (ln)” value was 8.93.

On to “ATCAAAATTGTCATTACACACCTTTATTTTTATAAT [CACACA_site5071]”, for which the “gcPBM binding intensity (ln)” value is 9.46. For the sequence “AATAATATATGGACATGTACATAATATATATTTTTT [XGTACX_site312]”, the “gcPBM binding intensity (ln)” value stood at 9.29.

Regarding “TTCATATAATTCATCTGTACATATTGATAGTATGCA [XGTACX_site6386]”, the “gcPBM binding intensity (ln)” value was 9.1. Turning to “TGTTTTATTTATTAAGCACACGCGATTTAAAAAATA [CACACA_site981]”, the “gcPBM binding intensity (ln)” value was 8.93. On to “TCAAATGTGTAATCTTGTACACATTAAAAGAAAAAA [XGTACX_site8822]”, for which the “gcPBM binding intensity (ln)” value stood at 9.19.

The values above are taken from the supplement of paper PMC11417369.
